Test results reported in the RNAGym collection of RNA variant scans (doi:10.7554/elife.90254).
Read counts are not given, so values of variants with three or more changes are uncertain.

B1: OR4K15 (parent)
chain: GUUAACGGUCAUAGGCCAUGGAAACUAGGAGCACCAUUUCGCUGCCAGUGAAGAAAUGAACAAAGAAAAUCUGGGCCAGGCAGGCAUCAAAAGAAAUAGUCUUGCGCUCAACCAGAAAGUCUGUAAUCAUUUUAAGGGUA

Variants of: B1
Assay: self-cleavage, relative activity (ratio to wild type); higher = more cleavage; in vitro, sequencing; the parent is a self-cleaving ribozyme

Row | Variant | self-cleavage
1 | A66G U70C C113U A118G A125G | 0
2 | U38C A63G A96G | 0.45
3 | A11U A51G U122C | 1.64
4 | C6U A33G U100C A118C A135U | 0.67
5 | A51G A69G U130C | 1.67
6 | A33G C34U U38A A86U U87C U127C | 0.34
7 | A67U U102A A114G A117G | 0.6
8 | A11G C32U A51G A118G | 0.93
9 | U19C A116U U120C | 0.11
10 | G15A G41A A62U C81U U102C | 0.47
11 | A90G A94C U108C | 0.01
12 | A30U A56G A59U U131C U132C | 0.58
13 | U12A A13G A18C U49C A55G A110G A111G | 0.05
14 | A51G A86U U97C A126G | 1.36
15 | U9G A62G U131C | 1.06
16 | U26C U38C U122C | 1.31
17 | A51G A82U A94G | 0.23
18 | U39C A66U A82G A116G | 0.26
19 | U19C A62U A140G | 1.25
20 | A52U A90G U130C U132A | 0.48
21 | A47G A63G G74U A86G U100C | 0.17
22 | U43C A94G A118G | 1.37
23 | U3C A23G A33G | 0.64
24 | A11U G31A A60G A89U A125G | 0.61

Row | Variant | self-cleavage
25 | A68U A111G A116G | 0.03
26 | A11G G84A A90U | 1.74
27 | G41A A60G A118G | 0.86
28 | A51U A117G U120C | 0.87
29 | A56G A118U U124C | 0.34
30 | G31A A82U U120C | 0.16
31 | A51G A68G U131C | 1.33
32 | A24G A27G A91C U102C | 1.91
33 | A68G G115U U122C | 0.04
34 | U72C A96G A98G | 0.03
35 | C42U A59G A60G A111G | 0.02
36 | A24G A56U G84A | 1.45
37 | A23G A47U U97C U103A | 0.12
38 | A96U A117G U131C A140G | 0.25
39 | U72C A89G U131C | 0.07
40 | A33U A52U A66G | 1.31
41 | G44U A55U A67G | 1.73
42 | U19G U26C A36G A59G A82G A89G A95G C105A A116U | 0.06
43 | G15A A51G U102A | 0.33
44 | C17U U19G A78G | 0.45
45 | A22G A30G A116C | 0.23
46 | U57C A66G U108A | 0.02
47 | G14A A52G A110G | 0.07
48 | U57C A63U A68G A110C | 0.08

Row | Variant | self-cleavage
49 | A27C G73A A90G A92G A94G U124C | 0.04
50 | G73A U97C C105G A129U | 0.01
51 | G8U A22G A78U A94G A140G | 0.95
52 | U3C U43C A118G | 0.87
53 | U70C U72A U124C | 0.13
54 | U9A U122C A125G | 0.57
55 | A11U A54G A69G | 1.55
56 | U38A A89U A110C | 0.26
57 | A24G U87C C105U U120C | 0.02
58 | A4G A11G A90G U122C | 0.76
59 | A51G A69G U103C | 0.72
60 | G15A A27U U43C U87C | 0.53
61 | A36U A64U A89G | 1.97
62 | U87C A94G U97C A114G | 0.16
63 | U2A A30G A36U A90G A91G | 0.78
64 | G31C U38C A69G | 1.51
65 | A86G A90G U100C | 2.07
66 | A24G A68G A78U U100C U127A | 1.7
67 | A63G A69U U97C | 1.56
68 | A82G A91U A95G U120C | 0.98
69 | U43C A129G U132C | 1.08
70 | U39A A78G A92G A111G | 0.03
71 | A5G U43G U131C | 1.87
72 | G74A A94G A118U U130C | 0.05

Row | Variant | self-cleavage
73 | A11C A69G C76G | 0.18
74 | A18G A56G U124C | 1.39
75 | G53U U72C G106C | 0.02
76 | U43C A52G A56G | 0.81
77 | A56G A60G A68G U102C | 1.13
78 | A94G A126G U130G | 0.28
79 | A18U A52G A66G | 1
80 | A24G A47G A60G A67G | 0.38
81 | A33G A56G A134G | 1.16
82 | A30G U39C A52U A66G A126G | 1.71
83 | U19C A62U A89G U102C A134G A135G | 2.18
84 | A18G U19C A59U | 0.77
85 | A24G A51U A60G A94G | 0.67
86 | A52G U57A A64G C107U | 0.03
87 | A22G G53U A95G | 1.22
88 | U39A A56G U100G U102A | 0.43
89 | A23G U72C U100A A126G | 0.02
90 | U9C U38C U43C A55G | 0.94
91 | A96G A111G A140G | 0.03
92 | A13U A23G U26A U37C A63G | 1.29
93 | G41A U49G A64G A90G | 1.32
94 | U9A A52G A82U A116G | 0.05
95 | A24G A91G C105U A111U | 0.01
96 | A64G C77U A78U | 1.58

Row | Variant | self-cleavage
97 | A89G A91G U103C U122C | 0.1
98 | A78U U130C A140U | 0.15
99 | U43C U72A A78G A94G | 0.25
100 | U12C A62G A86G | 1.25
101 | U19A G84A A114G | 0.58
102 | A54G U57C A63G G75A A86G | 0.17
103 | U38C U100C A111G U127A G136A | 0.01
104 | A18U A51G A64G | 1.34
105 | U39C A52U A95G | 1.93
106 | U26C A47U U130A A134U | 0.66
107 | A30G A47G U57C A69U | 1.12
108 | A11G A60G A94G U108C | 0
109 | A24G A55G A92G A96G U108C | 0.05
110 | U2C U19A A36G C40U A60G | 0.75
111 | A30U A64U U122C U132A | 1.57
112 | U37C A92G C112U | 0.02
113 | A78G A118G U122C | 0.19
114 | G58A A98G A118G | 0.07
115 | C10U A23G A68G C121A | 1.95
116 | U9C U49C U133C | 2.09
117 | U37C U49C A89G | 1.12
118 | A11G A94G U102C | 1.8
119 | A23G U49C U139A | 0.3
120 | U26C U49A A60G A68G A96G A140G | 0.82

Row | Variant | self-cleavage
121 | U49A A55G A66G U72C A96G A116U | 0.01
122 | A78U A111G A118G | 0
123 | A13G U39C U57A A118G | 1.18
124 | A89U A94G U100C | 0.64
125 | A33U A92G U130C | 1.43
126 | A5G A18U U49C A129U | 0.98
127 | U2C G7A A62G A63G G136U A140U | 1.44
128 | U37C A47G A59G A63G | 1.28
129 | A27G A68G U70C | 1.03
130 | A23G A24G A55G A118G | 0.92
131 | A4G A24U U37C A63G | 1.46
132 | U19A A23G A33C U43C U72C U87C A116G | 0.1
133 | A59G U102A A135G | 1.82
134 | A5C U9A A91G A94G U122C | 0.82
135 | A47G U130G U131C | 0.26
136 | A24G A78U A126G U130C | 0.09
137 | U12G U19C U87C A89G | 0.44
138 | U19A A23G A24C U57C A66U | 1.02
139 | U9A A30G A36G G84C | 0.58
140 | U43C C105U A114U | 0.01
141 | A62G A66G A86U | 1.64
142 | A24G A52G A78G U124A A129U | 0.29
143 | C17U A52G U120C U127C A129G | 0.06
144 | G7A A18U U19C A30G A140G | 1.13

Row | Variant | self-cleavage
145 | U37A U43C U72C | 0.15
146 | U2C A91G U103C | 0.25
147 | U2A U87C A111G | 0.06
148 | A5U C6U A68G U100C A125G | 0.28
149 | A5G U38C U49C | 0.98
150 | U9C A11G U72A U130C | 0.16
151 | U9A A22U A24C A60G A111G A114U | 0.01
152 | U19C A55U A129U | 0.76
153 | U49C A69G U87C | 0.6
154 | A22G U43A A60G A89G A92U | 1.07
155 | A36G U37C U39A A118U | 0.55
156 | A60G A63U U127C G137A | 0.94
157 | A68G A96G U97A A98G | 0.79
158 | A23G A52G C107U | 0.08
159 | A5G A54C A64G | 0.99
160 | A55G U72C U127C U131C | 0.07
161 | A54G A89G A94G A118G U122A | 0.19
162 | A36C U39C A52G A126G | 0.94
163 | A30G U37C A52G C107U | 0.03
164 | A13G U39A A92G U122C | 1.08
165 | U87C U103C U124A | 0.42
166 | A68G U70C C109A | 0.21
167 | A5G A51U U130C | 1
